# Measured values as given in PubChem BioAssay (NCATS).
# Inconclusive means that the source gave no clear call. Such entries were picked first, then a sample of the others. For some assays here: Where the call is inconclusive, the potency comes from a doubtful curve fit. For some assays here: A note “side channel” means that the fit belongs to a control or component signal, not to the main read-out. Calls of active or inactive are those of the source. Unless noted, calls follow the shape of the dose curve; as a rule, active = well fitted curve in either direction with a large enough effect (not every such curve was filed as active); inconclusive = small, poorly fitted or top-dose-only effect, or another doubt; inactive = flat fitted curve, though single readings scatter.
# Assays:
# [1] = NFAT Signaling Pathway (AID 444); details: Jurkat NFAT-bla M1, carbachol, beta-lactamase ratio, 5 h; at 17.2 µM (top of the series) unless noted;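 also: carbachol stimulus at about its EC50 of 1 µM final; % is scaled to controls: 0 for no effect and ±100 for the full control effect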
# Procedure, shortened: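 Jurkat cells with NFAT-driven β-lactamase reporter and co-expressed M1 receptor, stimulated with carbachol (final 1 uM, ~EC50), compound titration, 5 h at 37 °C. CCF4 loaded 1 h at RT; 460/530 nm ratio gave %activity and AC50.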
# [2] = Stat Signaling Pathway (AID 446); details: ME-180 SIE beta-lactamase reporter, IL-6 stimulated, 5 h; at 7.69 µM (top of the series) unless noted;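 also: ME-180 cervical cancer cells given 40 pM IL-6 alongside compound; SIE-controlled beta-lactamase reporter measured as 460/530 nm FRET emission ratio; top concentration of the series differs between compounds; % is scaled to controls: 0 for no effect and ±100 for the full control effect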
# Procedure, shortened: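 Overnight-plated ME-180 cells bearing a STAT Inducible Element beta-lactamase reporter; 5 h co-exposure to compound and 40 pM IL-6; values normalized to 300 pM IL-6 and 125 nM JAK inhibitor controls.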
# [3] = target: 3',5'-cyclic-AMP phosphodiesterase 4B (Homo sapiens) (UniProt Q07343); assay: qHTS Assay for Inhibitors of PDE-IV (AID 607; active = well fitted activation curve with a large enough effect in the main read-out, with a control signal flat, not every such curve was filed as active; inconclusive = small, poorly fitted or top-dose-only effect, or effect the other way, or a change in a side signal; also: potency is read from the fitted curve at half-maximal effect; as to activation (PDE inhibition): % of control where 0% means no effect); details: HEK293 ACTOne CNG channel cells, membrane potential fluorescence; activation (PDE inhibition): at 22.9 µM (top of the series)
# Procedure, shortened: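 Live HEK293 cells with a modified cyclic nucleotide-gated (CNG) channel report intracellular cAMP via membrane-potential dye fluorescence (ex 535/em 590 nm). Endogenous PDE-IV was targeted. Compounds were tested at up to 22.9 uM final; RO 20-1724 100 uM served as control.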
# [4] = qHTS Assay for Identification of Small Molecule Agonists for Hypoxia Response Element Signaling Pathway (AID 914; active = well fitted activation curve with a large enough effect in the signal ratio, with a control signal flat, not every such curve was filed as active; inconclusive = small, poorly fitted or top-dose-only effect, or effect the other way, or a change in a side signal; the % refers to the signal ratio; also: potency is read from the fitted curve at half-maximal effect; as to activation: top concentration of the series differs between compounds; % of control where 0% means no effect); details: ME-180 HRE-bla reporter, beta-lactamase ratio, CoCl2, 17 h; activation: stronger effect = higher value
# Procedure, shortened: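 Reporter activity (beta-lactamase, CCF4 460nm/530nm ratio) in HRE-bla ME-180 cells is recorded after 17 h compound exposure with EC50 CoCl2 at 37 degrees Celsius. AC50 values come from titration data.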
# [5] = target: Cytochrome P450 3A4 (Homo sapiens) (UniProt P08684); assay: qHTS Assay for Inhibitors and Substrates of Cytochrome P450 3A4 (AID 884; active = well fitted curve in the direction sought with a large enough effect; inconclusive = small, poorly fitted or top-dose-only effect, or another doubt; inactive = no such curve, though single readings can be large; an effect the other way counts as inactive or inconclusive; also: potency is read from the fitted curve at half-maximal effect; nearly all actives have a fitted effect of over 50% in size)
# Procedure, shortened: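 Luminescent readout of luciferin produced by CYP3A4 (20 nM) dealkylation of Luciferin-PPXE, 25 uM (its KM). NADPH-driven reaction ran 60 min at RT after 10 min compound preincubation; data scaled to 57 uM ketoconazole as 100% inhibition.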
# [6] = target: Cytochrome P450 2C9 (Homo sapiens) (UniProt P11712); assay: qHTS Assay for Inhibitors and Substrates of Cytochrome P450 2C9 (AID 883; active = well fitted curve in the direction sought with a large enough effect; inconclusive = small, poorly fitted or top-dose-only effect, or another doubt; inactive = no such curve, though single readings can be large; an effect the other way counts as inactive or inconclusive; also: potency is read from the fitted curve at half-maximal effect; nearly all actives have a fitted effect of over 60% in size); details: recombinant CYP2C9, luciferin-H luminescence, 60 min; activity change, negative = inhibition: at 57.1 µM (top of the series)
# Procedure, shortened: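 Signal: luciferase luminescence reporting luciferin produced by CYP2C9. Conditions: 10nM enzyme, Luciferin-H 100uM at KM, 25mM KPO4, 37C, 60 min NADPH-driven reaction. Reference: 57uM sulphaphenazole as 100% inhibition.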
# [7] = target: Cytochrome P450 2D6 (Homo sapiens) (UniProt P10635); assay: qHTS Assay for Inhibitors and Substrates of Cytochrome P450 2D6 (AID 891; active = well fitted curve in the direction sought with a large enough effect; inconclusive = small, poorly fitted or top-dose-only effect, or another doubt; inactive = no such curve, though single readings can be large; an effect the other way counts as inactive or inconclusive;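 also: luciferin methyl ether substrate demethylated by CYP2D6 with NADPH regeneration; potency is read from the fitted curve at half-maximal effect; nearly all actives have a fitted effect of over 60% in size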); details: recombinant CYP2D6, luciferin-ME EGE luminescence; activity change, negative = inhibition: at 57.1 µM (top of the series)
# Procedure, shortened: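 Luminescent read-out of luciferin formed by 5 nM human CYP2D6 demethylating 30 uM Luciferin-ME EGE (Km level) over 60 min at room temperature after NADPH regeneration addition. Data normalized to full inhibition by 1.43 uM quinidine.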
# [8] = qHTS Assay for Identification of Small Molecule Antagonists for NFkB Signaling Pathway (AID 895; active = well fitted inhibition curve with a large enough effect in the signal ratio, with a control signal flat, not every such curve was filed as active; inconclusive = small, poorly fitted or top-dose-only effect, or effect the other way, or a change in a side signal; the % refers to the signal ratio; also: potency is read from the fitted curve at half-maximal effect); details: NFkB beta-lactamase reporter cells, FRET ratio 460/530, stimulated with 10 pM TNF alpha; activity change, negative = inhibition: at 38.3 µM (top of the series)
# Procedure, shortened: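 ME-180 NFkB-bla cells (beta-lactamase under NFkB response element), plated overnight, treated with compound then 10 pM TNF alpha (about EC50) for 5 hrs at 37 C. LiveBLAzer FRET read at 460/530 nm emission, 405 nm excitation.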
# [9] = qHTS Assay for Identification of Small Molecule Agonists for Thrombopoietin (TPO) Signaling Pathway (AID 917; active = well fitted curve in the direction sought with a large enough effect; inconclusive = small, poorly fitted or top-dose-only effect, or another doubt; inactive = no such curve, though single readings can be large; an effect the other way counts as inactive or inconclusive; also: potency is read from the fitted curve at half-maximal effect); details: TPO signaling pathway reporter cells, agonist qHTS, stimulated with TPO at its EC50; activity, positive = activation: at 38.5 µM (top of the series)
# Procedure, shortened: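 Cell-based luciferase reporter screen. Mouse Ba/F3 line stably expressing human TPO receptor; IL-3 removed overnight before plating. Co-treatment with compound and EC50 TPO (26 pM), 24 hrs at 37 C, then luminescence.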
# [10] = qHTS Assay for Identification of Small Molecule Antagonists for Thrombopoietin (TPO) Signaling Pathway (AID 918; active = well fitted curve in the direction sought with a large enough effect; inconclusive = small, poorly fitted or top-dose-only effect, or another doubt; inactive = no such curve, though single readings can be large; an effect the other way counts as inactive or inconclusive; also: potency is read from the fitted curve at half-maximal effect; nearly all actives have a fitted effect of over 60% in size); details: TPO-dependent cell signaling reporter, antagonist mode; activity change, negative = inhibition: at 38.5 µM (top of the series)
# Procedure, shortened: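 Luminescence read-out: GPIIb-promoter luciferase in Ba/F3 cells carrying human TPO receptor. Compounds added with 26 pM TPO (EC50), 24 hrs, 37 C, 5% CO2; cells deprived of IL-3 overnight beforehand. Inhibition of signal scored.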
# Tags tell the direction and shape of the fitted curve or compound fluorescence and quenching.
# Chain of UniProt Q07343 (Q07343 whole entry, looked up): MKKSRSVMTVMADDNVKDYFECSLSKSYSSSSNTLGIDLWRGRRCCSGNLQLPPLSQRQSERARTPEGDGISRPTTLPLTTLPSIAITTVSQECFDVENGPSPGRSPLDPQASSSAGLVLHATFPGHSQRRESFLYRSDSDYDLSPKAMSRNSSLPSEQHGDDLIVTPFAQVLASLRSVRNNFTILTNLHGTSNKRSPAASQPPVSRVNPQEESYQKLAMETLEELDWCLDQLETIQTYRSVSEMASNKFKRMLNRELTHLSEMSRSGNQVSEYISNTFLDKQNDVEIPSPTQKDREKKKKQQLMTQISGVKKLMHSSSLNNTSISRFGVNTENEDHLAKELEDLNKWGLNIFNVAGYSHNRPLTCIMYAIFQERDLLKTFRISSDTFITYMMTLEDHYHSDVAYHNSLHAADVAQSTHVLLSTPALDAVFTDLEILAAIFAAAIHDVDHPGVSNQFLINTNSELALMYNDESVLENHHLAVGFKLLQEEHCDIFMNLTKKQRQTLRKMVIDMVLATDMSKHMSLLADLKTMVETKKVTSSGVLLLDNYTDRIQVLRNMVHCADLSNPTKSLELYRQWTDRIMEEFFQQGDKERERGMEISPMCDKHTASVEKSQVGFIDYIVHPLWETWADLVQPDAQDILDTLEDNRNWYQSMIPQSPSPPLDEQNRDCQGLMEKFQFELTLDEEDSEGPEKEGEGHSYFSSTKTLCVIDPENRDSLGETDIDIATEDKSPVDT
# Chain of UniProt P08684 (P08684 whole entry, looked up): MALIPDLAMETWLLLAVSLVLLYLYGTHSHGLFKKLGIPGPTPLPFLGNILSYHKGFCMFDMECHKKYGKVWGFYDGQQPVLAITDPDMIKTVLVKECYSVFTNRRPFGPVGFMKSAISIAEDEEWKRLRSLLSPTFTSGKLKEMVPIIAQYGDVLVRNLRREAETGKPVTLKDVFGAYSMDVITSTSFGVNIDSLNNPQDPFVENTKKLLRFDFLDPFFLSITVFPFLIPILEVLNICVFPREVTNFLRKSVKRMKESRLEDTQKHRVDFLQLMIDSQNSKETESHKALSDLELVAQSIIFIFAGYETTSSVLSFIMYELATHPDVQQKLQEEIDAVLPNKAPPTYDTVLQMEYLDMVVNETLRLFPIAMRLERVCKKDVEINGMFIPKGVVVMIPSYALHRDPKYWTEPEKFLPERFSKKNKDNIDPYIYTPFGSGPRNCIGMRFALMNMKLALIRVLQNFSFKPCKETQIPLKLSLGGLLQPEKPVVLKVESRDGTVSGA
# Chain of UniProt P11712 (P11712 whole entry, looked up): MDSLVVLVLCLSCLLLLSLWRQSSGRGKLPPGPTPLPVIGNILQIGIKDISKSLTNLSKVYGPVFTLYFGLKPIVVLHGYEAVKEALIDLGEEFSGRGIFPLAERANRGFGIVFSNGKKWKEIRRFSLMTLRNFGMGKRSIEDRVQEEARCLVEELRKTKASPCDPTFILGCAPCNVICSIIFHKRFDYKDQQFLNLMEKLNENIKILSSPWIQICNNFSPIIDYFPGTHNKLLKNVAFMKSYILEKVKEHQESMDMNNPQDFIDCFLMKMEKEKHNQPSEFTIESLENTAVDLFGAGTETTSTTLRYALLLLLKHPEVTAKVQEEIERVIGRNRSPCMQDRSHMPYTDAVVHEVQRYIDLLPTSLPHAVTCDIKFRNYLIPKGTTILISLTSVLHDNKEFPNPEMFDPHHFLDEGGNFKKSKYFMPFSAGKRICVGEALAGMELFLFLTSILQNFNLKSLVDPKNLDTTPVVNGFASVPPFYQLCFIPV
# Chain of UniProt P10635 (P10635 whole entry, looked up): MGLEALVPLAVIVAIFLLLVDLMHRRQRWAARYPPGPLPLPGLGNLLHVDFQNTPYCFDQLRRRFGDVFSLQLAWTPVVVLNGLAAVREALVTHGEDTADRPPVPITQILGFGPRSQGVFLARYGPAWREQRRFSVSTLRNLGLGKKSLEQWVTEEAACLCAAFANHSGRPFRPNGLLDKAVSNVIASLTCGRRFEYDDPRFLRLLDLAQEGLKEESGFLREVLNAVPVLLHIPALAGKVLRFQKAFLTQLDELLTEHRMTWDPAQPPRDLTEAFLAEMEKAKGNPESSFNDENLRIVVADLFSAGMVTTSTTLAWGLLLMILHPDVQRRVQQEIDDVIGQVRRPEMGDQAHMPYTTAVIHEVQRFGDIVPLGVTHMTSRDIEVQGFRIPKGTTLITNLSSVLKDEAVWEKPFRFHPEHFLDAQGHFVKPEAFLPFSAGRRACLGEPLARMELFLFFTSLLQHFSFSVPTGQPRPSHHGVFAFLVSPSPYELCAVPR
structure (smiles),measurement,setting,value
Cn1cnc([N+](=O)[O-])c1Sc1nnc(-c2cccnc2)n1C,"activity change, negative = inhibition",[1],inconclusive: -39.6% [inhibitor] [at 7.69 µM]
same,"activity, negative = inhibition",[2],inactive: 4.54%
same,Potency,[3],inactive
same,Potency,[4],"inconclusive: 5.01 µM [inhibitor, single point]"
Cc1c(Cl)cc(C(C)(C)C)c(O)c1Cc1c(C)c(Cl)cc(C(C)(C)C)c1O,"activity change, negative = inhibition",[1],inconclusive: -124% [inhibitor] [at 7.69 µM]
same,"activity, negative = inhibition",[2],inconclusive: -43.4% [inhibitor]
same,Potency,[3],inactive
C[C@H](C(=O)c1ccncc1)c1ccccn1,"activity change, negative = inhibition",[1],inactive: -8.81% [at 7.69 µM]
same,"activity, negative = inhibition",[2],inactive: 8.11%
same,Potency,[3],inactive
same,Potency,[5],"inconclusive: 3.98 µM [inhibitor, partial curve]"
CSc1cccc(NC(=O)OC2CCCCCCCCCCC2)c1,"activity change, negative = inhibition",[1],inconclusive: -61.6% [inhibitor] [at 7.69 µM]
same,"activity, negative = inhibition",[2],inconclusive: 6.55% [activator]
same,Potency,[5],"inconclusive: 3.16 µM [inhibitor, partial curve]"
c1ccc(CSCCc2ccncc2)cc1,"activity change, negative = inhibition",[1],inactive: -10.1% [at 7.69 µM]
same,"activity, negative = inhibition",[2],inconclusive: -71.5% [inhibitor]
same,Potency,[6],active: 0.316 µM
CCNc1ncc2nc(-c3ccc(OC)cc3)c(=O)n(C[C@H]3CCCO3)c2n1,"activity change, negative = inhibition",[1],inconclusive: 32.5% [activator] [at 7.69 µM]
same,"activity, negative = inhibition",[2],inconclusive: 32.1% [activator]
same,Potency,[3],"inconclusive: 7.94 µM [activator, partial curve]"
same,Potency,[4],"inconclusive: 2.51 µM [activator, partial curve]"
CC(C)Cn1cnc2c(SCc3ccc(Cl)cc3Cl)nc(N)nc21,"activity change, negative = inhibition",[1],inconclusive: -60.4% [inhibitor] [at 7.69 µM]
same,"activity, negative = inhibition",[2],inconclusive: -31.5% [inhibitor]
same,Potency,[6],"inconclusive: 7.94 µM [inhibitor, single point]"
same,Potency,[7],"inconclusive: 7.94 µM [inhibitor, single point]"
same,Potency,[4],"inconclusive: 1 µM [cytotoxic, side channel, single point]"
Clc1ccc(C(c2ccc(Cl)cc2)n2cc[n+](C[C@@H](OCc3ccc(Cl)cc3Cl)c3ccc(Cl)cc3Cl)c2)cc1,"activity change, negative = inhibition",[1],inconclusive: -51.6% [inhibitor] [at 38 µM]
same,"activity, negative = inhibition",[2],inconclusive: 42.9% [activator] [at 38 µM]
same,Potency,[3],inactive
CCNc1ncc2nc(-c3cccs3)c(=O)n(Cc3cccs3)c2n1,"activity change, negative = inhibition",[1],inconclusive: -54.8% [inhibitor] [at 7.69 µM]
same,"activity, negative = inhibition",[2],inconclusive: 45.6% [activator]
same,Potency,[3],"inconclusive: 6.31 µM [activator, partial curve]"
same,Potency,[4],"inconclusive: 3.16 µM [fluorescent, side channel, single point]"
COCCCNC(=O)c1c(N)n(/N=C/c2cccs2)c2nc3ccccc3nc12,"activity change, negative = inhibition",[1],inconclusive: 137% [activator]
same,"activity, negative = inhibition",[2],inactive: 21.4% [at 17.2 µM]
same,Potency,[4],"inconclusive: 10 µM [fluorescent, side channel, partial curve]"
CSc1nc2sc3c(c2c2nnnn12)CCCC3,"activity change, negative = inhibition",[1],inconclusive: -37.5% [inhibitor]
same,"activity, negative = inhibition",[2],inconclusive: 36.1% [activator] [at 17.2 µM]
same,activation,[4],inconclusive: -49%
CC1(C)Cc2c(C#N)c(NCCc3ccccc3)nc(-c3ccco3)c2CO1,"activity change, negative = inhibition",[1],active: 80.9% [activator]
same,"activity, negative = inhibition",[2],inconclusive: 74.1% [activator] [at 17.2 µM]
same,Potency,[4],"inconclusive: 10 µM [fluorescent, partial curve]"
C=CCOC(=O)C(C#N)c1nc2ccccc2nc1N1CCC(C(=O)OCC)CC1 (stereo not drawn),"activity change, negative = inhibition",[1],inconclusive: -56.1% [inhibitor]
same,"activity, negative = inhibition",[2],inactive: -10.4% [at 17.2 µM]
same,activation,[4],inconclusive: 28.6%
CC[C@H](C)[C@@H]1O[C@]2(CC[C@@H]1C)C[C@H]1C[C@H](CC=C(C)[C@@H](O[C@H]3C[C@H](OC)[C@H](O[C@H]4C[C@H](OC)[C@H](O)[C@H](C)O4)[C@H](C)O3)[C@@H](C)C=CC=C3CO[C@@H]4[C@@H](O)C(C)=C[C@H](C(=O)O1)[C@@]34O)O2,"activity change, negative = inhibition",[1],inactive: -10.6% [at 38 µM]
same,"activity, negative = inhibition",[2],inconclusive: -38.3% [inhibitor] [at 38 µM]
same,Potency,[8],"inconclusive: 11.2 µM [cytotoxic, side channel, single point]"
same,Potency,[9],"inconclusive: 12.6 µM [inhibitor, partial curve]"
same,Potency,[10],active: 12.6 µM
CCCCCCOc1ccc(C(=O)n2cnc(N)n2)cc1,"activity change, negative = inhibition",[1],inconclusive: -84.3% [inhibitor]
same,"activity, negative = inhibition",[2],inactive: 27.4% [at 17.2 µM]
same,activation,[4],inconclusive: 14.4%
